Source: PubChem BioAssay AID488896 (Broad Institute, 2010)
The whole screen tested about 320,000 compounds, of which about 3,100 (0.97%) were called active. Inconclusive means that the source gave no clear call. Such entries were picked first, then a sample of the others.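 Rule for the calls: active = mean replicate inhibition of at least 70% and a set share of replicates each scoring 70 or more; inconclusive = meets just one of the two criteria; inactive = fails both criteria.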

Each compound was assayed against Scavenger receptor class B member 1 (Mus musculus) (UniProt Q61009) (assay: inhibitors of SR-BI mediated HDL lipid uptake, primary screen, ldlA[mSR-BI] cells, fluorescence, single point (AID 488896;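 note: 0% = median of neutral control wells and 100% = median of positive control wells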)). Settings: ldlA[mSR-BI] CHO cells, DiI-HDL uptake fluorescence, 3 h; at 12.5 µM; stronger effect = higher value.
UniProt Q61009, sequence (Q61009 whole entry, looked up): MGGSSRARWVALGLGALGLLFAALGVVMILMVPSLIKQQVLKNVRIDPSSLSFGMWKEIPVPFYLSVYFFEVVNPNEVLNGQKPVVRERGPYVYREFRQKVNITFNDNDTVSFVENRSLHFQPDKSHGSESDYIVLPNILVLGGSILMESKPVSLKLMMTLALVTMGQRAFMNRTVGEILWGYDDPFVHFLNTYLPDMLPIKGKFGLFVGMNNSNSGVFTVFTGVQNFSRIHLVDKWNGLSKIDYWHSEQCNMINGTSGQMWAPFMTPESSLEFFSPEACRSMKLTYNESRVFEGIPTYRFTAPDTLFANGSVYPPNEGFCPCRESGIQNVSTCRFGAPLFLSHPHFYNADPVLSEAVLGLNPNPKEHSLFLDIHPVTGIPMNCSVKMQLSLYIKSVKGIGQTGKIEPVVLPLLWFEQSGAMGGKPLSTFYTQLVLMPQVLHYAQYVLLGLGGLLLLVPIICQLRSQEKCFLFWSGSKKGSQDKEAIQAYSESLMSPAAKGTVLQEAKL

Row | SMILES | inhibition
1 | Cc1cc(NC(=O)c2cc(-c3cccs3)on2)nn1Cc1ccc(Cl)cc1 | inconclusive: 70.5%
2 | O=C(O)Cn1c(=O)c2cccn2c2ccccc21 | inactive: -1.53%
3 | CC(=O)NCCCc1nc2ccccc2n1Cc1c(F)cccc1Cl | inactive: 4.43%
4 | Cc1cccc(NC(=O)CSc2nsc(SCC(=O)Nc3cccc(C)c3)c2C#N)c1 | inactive: 34.1%
5 | COc1ccc(Cl)cc1C(=O)Nc1ccc(NC(=O)C(C)C)cc1 | inconclusive: 70.6%
6 | COc1cccc(OC)c1/C=C/C(=O)NC1CCCCC1 | inconclusive: 71.1%
7 | COc1cc([N+](=O)[O-])ccc1NC(=O)NCCCN1CCCC1=O | inconclusive: 70%
8 | COc1ccccc1N1C(C)=CC(=C(C#N)c2nc3ccccc3s2)C=C1C | inconclusive: 70.9%
9 | O=[N+]([O-])c1cccc(/C=N/Nc2cc(Cl)nc(-c3ccccc3)n2)c1 | active: 74.2%
10 | COC(=O)CSc1nnc(-c2cccc(NC(=O)c3ccc(C)cc3)c2)n1C | inconclusive: 70.1%
11 | CC(=O)Oc1ccc(C(=O)Cc2ccc3ccccc3n2)c(O)c1C | inconclusive: 71%
12 | COc1cc(C(=O)N2CCN(C(=O)COc3ccc4ccccc4c3)CC2)cc(OC)c1OC | inconclusive: 71%
13 | COCCN=c1scc(-c2ccc3c(c2)NC(=O)CO3)n1/N=C(\C)c1ccc(O)cc1 | inconclusive: 70.6%
14 | O=C(COC(=O)C1CC1)NCc1ccc(Cl)cc1Cl | inactive: -13.9%
15 | CCc1ccc2c(c1)C1(NN=C(c3cccc4ccccc34)S1)C(=O)N2 (stereo unspecified) | inconclusive: 70.8%
16 | Cc1ccc(Cl)cc1Nc1nc(-c2sc(NC(=O)c3ccco3)nc2C)cs1 | inconclusive: 72.8%
17 | Cc1ccc(OCC(=O)Nc2ccc(N3CCN(C(=O)c4ccco4)CC3)cc2)c(C)c1 | active: 78%
18 | COc1ccc(S(=O)(=O)Nc2c(C(=O)O)[nH]c3ccccc23)cc1 | inactive: 0.249%
19 | CNC(=S)N/N=C/c1ccc(OCc2ccccc2)c(Br)c1 | inconclusive: 82.8%
20 | COc1cc(NC(=O)COc2c(C)cc(C)cc2[N+](=O)[O-])c(OC)cc1Cl | inconclusive: 74.2%
21 | CCOC(=O)C1(C)/C(=N/Nc2ccccc2OC)C(=O)C(=O)N1c1ccccc1 (stereo unspecified) | inconclusive: 72.3%
22 | CCCCOc1ccc(C(=O)N/C(=C\c2ccc([N+](=O)[O-])cc2)C(=O)OCc2ccco2)cc1 | inconclusive: 72.8%

Row | SMILES | inhibition
23 | COc1ccc(OC)c(C(=O)Nc2c(O)ccc3ccccc23)c1 | inconclusive: 70.3%
24 | COC(=O)/C(=C(O)\C=C\c1ccccc1[N+](=O)[O-])c1nc2ccccc2[nH]1 | active: 88.8%
25 | O=C(Nc1ccc(NC(=O)c2ccc(Cl)cc2Cl)cc1)c1cccs1 | inactive: 21%
26 | O=C(COc1ccc([N+](=O)[O-])cc1)Nc1cccc2nsnc12 | inactive: -13.5%
27 | CCCn1c(NC(=O)c2ccc(C)cc2)nc2ccccc21 | inconclusive: 70.3%
28 | COc1ccc(-c2cc(C(=O)Nc3cc(OC)c(OC)c(OC)c3)no2)cc1OC | inconclusive: 70.9%
29 | O=C(O)c1ccccc1N/N=C/C1=C(N2CCOCC2)C(=C\c2ccccc2)/CC1 | inactive: 24.1%
30 | COc1cc(OC)c2c(-c3cccc(-c4sccc4C(C)=O)c3)cc(=O)oc2c1 | inconclusive: 71.2%
31 | Cc1cccc(/C=N/NC(=O)c2ccc(NC(=O)c3ccc(Cl)cc3)cc2)n1 | active: 76.8%
32 | COc1ccc(-c2ccc3c(c2)S(=O)(=O)c2cccc(C(=O)N4CCN(c5ccc(Cl)cn5)CC4)c2C3=O)cc1OC | inconclusive: 70%
33 | Cc1ccc(-c2c3c(nc4sc(C(N)=O)c(N)c24)CCC3)cc1 | inactive: 20.7%
34 | CCOC(=O)c1c(-c2cccc([N+](=O)[O-])c2)csc1NC(=O)C1CC1 | inactive: 17.7%
35 | CC(C)(C)c1nnc(N/N=C/c2cc(Br)ccc2O)n(N)c1=O | active: 115%
36 | COc1cc(/C=C/C(=O)OCC(=O)c2ccc[nH]2)cc(OC)c1OC | inconclusive: 74%
37 | COC(=O)c1cn(C(=O)c2cc(C)cc(C)c2)c2ccccc12 | inconclusive: 73%
38 | Oc1csc(Cc2nc(-c3ccc4ccccc4c3)cs2)n1 | inconclusive: 70.1%
39 | COc1cc(C2=NOC(C(=O)NCc3cccnc3)C2)cc(OC)c1OC (stereo unspecified) | inconclusive: 70%
40 | COc1ccccc1NC(=O)c1cc(C)nc2ccccc12 | inconclusive: 71.5%
41 | COc1ccc(-c2sc3ccc(N4CCOCC4)cc3c2C#CC2(O)CCCCC2)cc1 | inconclusive: 73.1%
42 | CCCCN1C2=C(C(=O)CCC2)C(c2ccc(Cl)c(Cl)c2)C2=C1c1ccccc1C2=O (stereo unspecified) | active: 85.3%
43 | CC(CCc1ccccc1)NC(=O)CN(C)Cc1ccc(F)cc1 (stereo unspecified) | inactive: -11.4%
44 | COc1ccc(N2CC(C(=O)NCCC3=CCCCC3)CC2=O)c(OC)c1 (stereo unspecified) | active: 78%

Row | SMILES | inhibition
45 | CC(C)c1nnc(NC(=O)CCC(=O)N2CCN(C3c4ccccc4-c4ccccc43)CC2)s1 | inconclusive: 73.1%
46 | COc1cc2cc(C(=O)Nc3ccc4c(c3)OCCO4)[nH]c2cc1OC | inconclusive: 71%
47 | O=C(NS(=O)(=O)Nc1ccccc1)C1=C(N2CCCC2)COC1=O | inactive: -27.1%
48 | CCOC(=O)COc1ccc(/C=C2/SC(=Nc3ccccc3)N(Cc3cccnc3)C2=O)cc1OC | inconclusive: 71.9%
49 | OC(CNc1ccccc1)COc1ccc(OCC(O)CNc2ccccc2)cc1 (stereo unspecified) | active: 73.6%
50 | CCOC(=O)CN1CC23C=CC(O2)C(C(=O)NC2CCCCC2)C3C1=O (stereo unspecified) | inactive: 1.99%
51 | CC(=O)c1c(C)[nH]c(C(=O)Nc2cccc(S(=O)(=O)N3CCOCC3)c2)c1C | inconclusive: 72.4%
52 | CC(C)C(=O)NNC(=O)c1cc2sccc2s1 | inconclusive: 70%
53 | COc1cc(CN2CCN(c3cccc(C)c3C)CC2)cc(Br)c1O | inconclusive: 71.3%
54 | CC(=O)c1cccc(NC(=O)c2ccc(NC(=O)CCS(=O)(=O)c3cccs3)cc2)c1 | inconclusive: 74.9%
55 | COc1ccc(OC)c(NC(=O)CCC(=O)N(Cc2ccc(OC)c(OC)c2)c2nccs2)c1 | inconclusive: 73.2%
56 | CCOc1ccc(-n2cc(-c3ccccc3)c3c(N4CCOCC4)ncnc32)cc1 | active: 81.5%
57 | COc1cc2ccccc2cc1C(=O)Nc1ccc(N2CCN(C(=O)C(C)C)CC2)cc1 | inconclusive: 72.3%
58 | CC(=O)c1ccc(NC(=O)c2ccc3c(=O)n4c(nc3c2)CCCCC4)cc1 | inconclusive: 80.8%
59 | CC1(C)c2[nH]c3ccccc3c2C[C@@H]2C(=O)N(c3cc(F)ccc3F)C(=O)N21 | active: 77.2%
60 | O=C(/C=C/c1ccc(OC(F)F)cc1)Nc1cccc(S(=O)(=O)N2CCOCC2)c1 | active: 79.8%
61 | COC(=O)[C@]1(CC(C)C)N[C@H](c2ccc(-c3cccc(Cl)c3)cc2)[C@@H]2C(=O)N(C)C(=O)[C@@H]21 | active: 74.4%
62 | CO/N=C/C(=N\Nc1ccc(OC)cc1)C(=O)c1ccc(F)cc1 | inconclusive: 73.5%
63 | COc1cc(/C=C/C(=O)Nc2ccc3nc4n(c(=O)c3c2)CCCC4)cc(OC)c1OC | inconclusive: 70.2%
64 | N#Cc1sc2nc(C3CC3)cc(-c3ccc(Cl)cc3)c2c1N | inconclusive: 71.1%
65 | C=CCN1C(=O)/C(=C2/Sc3ccccc3N2C)SC1=Nc1ccccc1C | inconclusive: 73.2%
66 | O=C(NNC(=O)c1cc2ccccc2cc1O)Nc1ccccc1F | inconclusive: 75.2%

Row | SMILES | inhibition
67 | COc1cc2c(C#CCCCO)c(-c3ccsc3)oc(=O)c2cc1OC | inconclusive: 73.5%
68 | CCN(CC)S(=O)(=O)c1ccc(-c2nnc(SCC(=O)N3c4ccccc4CC3C)o2)cc1 (stereo unspecified) | inconclusive: 70%
69 | C/C(=N\NC(=O)CSCc1ccc(Cl)cc1)c1ccc(NC(=O)c2ccccc2)cc1 | inconclusive: 72%
70 | CC(C)Cn1nc(C(=O)Nc2cccc(S(=O)(=O)N3CCCC3)c2)c2ccccc2c1=O | inactive: 54.2%
71 | CCN1CCc2c(OCc3ccccc3)cccc2C1=O | active: 80.1%
72 | COc1cc2c(cc1OC)C(c1ccccc1)NCC2 (stereo unspecified) | inactive: 7.08%
73 | S=c1[nH]nc(-c2ccc3c(c2)OCO3)n1-c1ccccc1 | inactive: -12.2%
74 | CCc1cc(=O)oc2c3c(cc(OCC(=O)NCc4ccco4)c12)OC(C)(C)CC3 | inconclusive: 76.4%
75 | Cc1cc(=O)oc2c(C)c(OC(C)C(=O)Nc3ccc(N4CCC(C)CC4)cc3)ccc12 (stereo unspecified) | inactive: 47.3%
76 | NNC(=O)c1cccc(COc2cccc(Br)c2)c1 | inconclusive: 70.6%
77 | O=C(Nc1ccc(N2CCN(C(=O)c3ccco3)CC2)cc1)c1ccc(Br)cc1 | inconclusive: 70.9%
78 | Cn1c(CCNC(=O)c2ccc(Cl)c(Cl)c2)nnc1SCc1ccc(Cl)c(Cl)c1 | inactive: 37.4%
79 | COc1ccc(/C=C/c2ccc3c(Br)ccc(O)c3n2)cc1 | inactive: 4.86%
80 | Cc1cnc(NC(=O)c2cc3c(s2)CCCC3)s1 | inconclusive: 70.7%
81 | O=C(NOC(=O)c1cc(Br)ccc1Cl)c1cccs1 | inactive: -10.8%
82 | CC1CCN(c2nc(-c3ccncc3)nc3ccccc23)CC1 | active: 80.4%
83 | Cc1cccc2sc(NNC(=O)c3cc(-c4cccs4)nc4ccccc34)nc12 | active: 72.1%
84 | COc1ccc(S(=O)(=O)N2CCN(C(=O)CNC(=O)c3ccc4c(c3)OCO4)CC2)cc1 | inactive: 12.3%
85 | O=C(CN(C(=O)Cn1nnc(-c2ccc(F)cc2)n1)C1CCCC1)NC1CCCC1 | active: 93.9%
86 | COc1cccc(-c2cc3nc(-c4ccccc4)cc(N4CCC5(CC4)OCCO5)n3n2)c1 | inconclusive: 71.2%
